Test results taken from PMC12136788.
The list shows a part of the results.

T1: UNK ZnF1-3 (human, UniProt Q9C0B0 31-174)
T1 sequence: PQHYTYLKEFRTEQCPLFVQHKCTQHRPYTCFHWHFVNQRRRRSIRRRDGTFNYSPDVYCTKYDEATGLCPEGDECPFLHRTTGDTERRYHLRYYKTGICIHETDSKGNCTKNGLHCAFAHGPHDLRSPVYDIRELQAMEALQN

B1: chr6:142515020:142515021:-_ENSMUSG00000030247_ENSMUST00000032374|mus_hu|FALSE|FALSE (ssRNA)
RNA: GGGAGUUCUACAGUCCGACGAUCCCCUCCAAACCCAAUGGUAACUUGAACUUCAAUGGAGAAGAGAAAAGCAGAAGUGAAAGACCUGACAUUAGUCACACACACAGUGGACUCCAAACCACUUUUCUCCAUUCCACUUUUCUCCAACAGAGGAUUGAGCAUCA
B2: chr7:141438946:141438947:+_ENSG00000106028_ENST00000265304|hu_mus|hu_hu_hu_mus_True|1_28 (ssRNA)
RNA: GGGAGUUCUACAGUCCGACGAUCGACGAAAUACCUGUAACACAGGUCUUCGAAACAUGGCUUCUGUUUUUCUUACAACCUAAUCUUUAGGCUUUUCCUAAAGGAAAAACCCGAGCAAGAAAAAUGAUAAAUCAAGAACUUCCGCAACAGAGGAUUGAGCAUCA
B3: chr1:135197953:135197954:+_ENSMUSG00000041757_ENSMUST00000038295|mus_mus|motif|central (ssRNA)
RNA: GGGAGUUCUACAGUCCGACGAUCGAGCUGAUCCCAUCUACCAGUCUUUAAGGAGGAAGGGGCAGAUUUGGGGUGCUUGAACGGUGCAGAUAGGGGAUGUCAUGAAGGAGCACUUUCCAGAAGCCAGAGAGAGGCAAAAACAGGCAACAGAGGAUUGAGCAUCA
B4: chr12:66249844:66249845:-_ENSMUSG00000047534_ENSMUST00000052201|mus_hu|FALSE|FALSE (ssRNA)
RNA: GGGAGUUCUACAGUCCGACGAUCGGGAUGCCUAUUUGUCUUAUCAGAUCCUACUGCCUCAGUAAUUGGAAACUCUUUCCUAACACCAGACUUCUGAAGAGUUUCUUUGACGGAAGGUCUAGCUUUCUUUUGUUUGAUAUAAAACAACAGAGGAUUGAGCAUCA
B5: chr11:46405157:46405158:+_ENSG00000110492_ENST00000395566|hu_hu|hu_hu_hu_mus_False|1_68 (ssRNA)
RNA: GGGAGUUCUACAGUCCGACGAUCCCCUCCCCACUUUGGGCACUUGGUGUGGGCGUGAGAGGACAGGAUGAUUGAUUAGAGCUGACAGGAAGACAAAAGGCACUGGUGGGUUAUAUCUUGGGCCUGUGGGAGAGGAGGCGUGGGCAACAGAGGAUUGAGCAUCA
B6: chr4:76721835:76721836:+_ENSG00000138768_ENST00000264904|hu_mus|hu_hu_hu_mus_True|1_48 (ssRNA)
RNA: GGGAGUUCUACAGUCCGACGAUCGUUUGGCUGGGGUUUCUGAGACGCUCUGGAAUAUAACUCAUGUUUGCUAAUAAAUCCUAGUUUUCUAUGAAAUUUCUCUUUGCCAAUCCUCUUCUCUAUUAGUUGCUUUAGUUCUCUUUCCAACAGAGGAUUGAGCAUCA
B7: chr2:48026839:48026840:+_ENSG00000116062_ENST00000540021|hu_hu|hu_hu_hu_mus_False|8_68 (ssRNA)
RNA: GGGAGUUCUACAGUCCGACGAUCAUAGUGAGCCACUAGCGUCCUAAAUCUGGAACAGUGGCGGUCAUCUGAAAACUGGCCGAUGAAAAACUUGCCCAGUGAAGUGUCCACAAAGCAAACACCAUACGCACGAGUAUGACCAGACAACAGAGGAUUGAGCAUCA
B8: chr5:139724684:139724685:+_ENSMUSG00000036817_ENSMUST00000110883|mus_mus|motif|central (ssRNA)
RNA: GGGAGUUCUACAGUCCGACGAUCGCCUGGAAACCUGCCAGCCUAUCUGCUUCUUGACUUUAUGCAUUCAAGCAAAUCCCGGAGUCAAAAGGAGUGUCCGAGAAUCAUACAUUCAAAUGAAUUAAAAAAGCCUCCCCGGCUUUUCAACAGAGGAUUGAGCAUCA
B9: chr5:21408736:21408737:-_ENSMUSG00000042453_ENSMUST00000161356|mus_hu|mus_mus_mus_hu_False|28_48 (ssRNA)
RNA: GGGAGUUCUACAGUCCGACGAUCGUUGACAGAGUUGUAGAUGGUGGCUUCAUGGAACUGGAAAGGGGAGCAGCCAAUGCUGUUAGAAGAGGAAGGUAGGCACUGGGUCUGCACGAGCUGCCAGGAAUCCGAUCUUGCAUCCUUCAACAGAGGAUUGAGCAUCA
B10: chr11:10819154:10819155:-_ENSG00000110321_ENST00000525681|hu_mus|FALSE|FALSE (ssRNA)
RNA: GGGAGUUCUACAGUCCGACGAUCCUUAGGAUGUAAUUAUUGCAUGCUGCUAAUAUUCUAUCUAAACAUUAAGGAUACUCCUAAAGUAUUUGAUGGUAGACUAUGAUUAAGACAUCACACUACAAAAACCUUAUGCAGAAGGAACAACAGAGGAUUGAGCAUCA
B11: chr2:42509997:42509998:+_ENSG00000143924_ENST00000318522|hu_mus|hu_hu_hu_mus_True|68_88 (ssRNA)
RNA: GGGAGUUCUACAGUCCGACGAUCUCGCUGAGUCCUCUCCUCAUAAUUAAAUAGUACUACCACUGAGGCAAUGAAAUAAACUAUCUCCCCUGUGGGAAGCAGGUAUACAUUCGCUCUACAGUCCUUUCCUCGAUAACCGUAUACCAACAGAGGAUUGAGCAUCA
B12: chr14:53325254:53325255:-_ENSG00000073712_ENST00000341590|hu_mus|FALSE|FALSE (ssRNA)
RNA: GGGAGUUCUACAGUCCGACGAUCGACCACCUUGCAGUCUACUUCGGUACAGAUGAAGGACAACCGGACCUCAUCUGCAAACUCUACAGUGACCAUCUUGAUCUCCCAGUUGACAUUCCACUGCUUCAUGUUGCUGAACCGCCACAACAGAGGAUUGAGCAUCA
B13: chr14:76904430:76904431:+_ENSMUSG00000022010_ENSMUST00000022587|mus_mus|mus_mus_mus_hu_True|38_108 (ssRNA)
RNA: GGGAGUUCUACAGUCCGACGAUCUGCUGGAAAAAAAACCCUCGUGGAAAAAAAGAGGGAACACCAGCAGCCUUGUAUAAGCUAGAUAAAAUCUUCUAGCUGUCUGCAGCCCAGGGAGAAACAGAAAACGGCAGCCCUAAUUUACAACAGAGGAUUGAGCAUCA
B14: chr2:219460011:219460012:+_ENSG00000144580_ENST00000542068|hu_mus|FALSE|FALSE (ssRNA)
RNA: GGGAGUUCUACAGUCCGACGAUCAAACUCAUUCAGCUGCUUCUACAAUCAUGAGGAGAUGGCACUAUGAAAACUCACGCUAGAGAACGGGGUCAAGUAGUCUACCAUUUGGAUCCAGGCGCUUACUCCGUUUGAGAAGACACCCAACAGAGGAUUGAGCAUCA

What follows are binders tested against T1, UNK ZnF1-3 (assay: nsRBNS (natural sequence RNA bind-n-seq); RBNS binding buffer (assumed for nsRBNS): 25 mM Tris pH 7.5, 150 mM KCl, 3 mM MgCl2, 0.01% Triton X-100, 500 ug/ml BSA, 20 U/ml SUPERase-In, 4 C; UNK is unkempt and MSI1 is Musashi-1; names of the RNAs are library labels; protein concentration not given here; high values mean tight binding).

First: B1
Second: B2
The binding signal of the first is higher: 0.882 enrichment R for the first, 0.657 enrichment R for the second.

First: B3
Second: B4
The binding signal of the first is higher: 2.39 enrichment R for the first, 0.732 enrichment R for the second.

Going from B5 to B6, the binding signal falls from 2.17 enrichment R to 0.561 enrichment R.

Compared with B7, B8 is higher in binding signal: 1.08 enrichment R for the first, 1.18 enrichment R for the second.

Compared with B9, B10 is lower in binding signal: 1.63 enrichment R for the first, 0.935 enrichment R for the second.

First: B11
Second: B12
The binding signal of the first is higher: 1.34 enrichment R for the first, 0.822 enrichment R for the second.

Going from B13 to B14, the binding signal falls from 2.82 enrichment R to 1.31 enrichment R.
